{
  "source": "PubChem BioAssay (NCATS)",
  "note": "Where “and” joins values, the source holds several entries; their conditions need not be identical. Identical values can stand only once. Some of the results follow. Shown are side measurements of this screen, not its main read-out; they come without a call. The list favours compounds with an active or inconclusive main result. The note in brackets gives the kind of curve behind each potency; many fits are weak. Tags give direction and shape of the fitted curve.",
  "data": [
    {"test": "qHTS Assay for Lipid Storage Modulators (AID 1519)", "conditions": "Drosophila S3 cells, BODIPY lipid droplet/cell ratio, laser cytometry; measured here: lipid (BODIPY) channel AC50; cells loaded with oleic acid", "how_it_was_run": "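Cells seeded at 5,000 per well were treated with compounds over a concentration series and loaded with oleic acid (400 uM, as added). Lipid droplet fluorescence (488 nm excitation, 500-530 nm channel) was read by laser-scanning cytometry and normalized to 20 uM Triacsin C.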", "values": [
      {"smiles": "COc1ccc(-c2nc3cnc(OC)nc3n(CCc3ccccc3)c2=O)cc1", "AC50": "0.0631 µM [rising, full curve]"},
      {"smiles": "COc1cc(OC)c2c(=O)c(-c3ccc4c(c3)OCO4)coc2c1", "AC50": "0.0708 µM [rising, full curve]"},
      {"smiles": "CN(C)c1ncc2nc(-c3cccs3)c(=O)n(C3CC3)c2n1", "AC50": "0.708 µM [rising, full curve, poor fit]"},
      {"smiles": "COc1ncc2nc(-c3ccccc3)c(=O)n(C3CC3)c2n1", "AC50": "2.51 µM [rising, partial curve, poor fit]"},
      {"smiles": "CC(=O)N1CCC2(CC1)CCN(c1ccccn1)CC2", "AC50": "0.708 µM [rising, full curve, poor fit]"},
      {"smiles": "COc1cc(-c2cc(=O)c3ccccc3o2)ccc1O", "AC50": "17.8 µM [rising, partial curve]"},
      {"smiles": "COc1ccc(C(=O)N2CCC3(CCCN(c4ncccn4)C3)CC2)cc1", "AC50": "2 µM [rising, partial curve]"},
      {"smiles": "COc1cccc(Cn2c(=O)c(-c3cccs3)nc3cnc(N4CCN(C)CC4)nc32)c1", "AC50": "0.708 µM [rising, partial curve, poor fit]"},
      {"smiles": "COC1/C=C/OC2(C)Oc3c(C)c(O)c4c(O)c(c(/C=N/N5CCN(C)CC5)c(O)c4c3C2=O)NC(=O)/C(C)=C/C=C/C(C)C(O)C(C)C(O)C(C)C(OC(C)=O)C1C", "note": "(stereo not given)", "AC50": "6.31 µM [rising, full curve, poor fit]"},
      {"smiles": "COc1ccccc1CNc1nc(-c2cccnc2)nc2ccccc12", "AC50": "0.708 µM [rising, full curve]"},
      {"smiles": "COc1cccc(-c2nc(NCc3cccs3)c3ccccc3n2)c1", "AC50": "0.398 µM [rising, full curve, poor fit]"},
      {"smiles": "Cn1c(-c2nc(-c3ccccc3)cs2)nc2ccccc21", "AC50": "0.282 µM [rising, full curve]"},
      {"smiles": "O=c1c(-c2ccccc2)nc2cnc(N3CCOCC3)nc2n1-c1ccccc1", "AC50": "0.282 µM [rising, full curve, poor fit]"},
      {"smiles": "COCCn1c(=O)c(-c2ccc(OC)cc2)nc2cnc(Oc3ccc(OC)cc3)nc21", "AC50": "1.12 µM [rising, full curve]"},
      {"smiles": "O=c1c(-c2ccccc2)nc2cnc(N3CCNCC3)nc2n1-c1ccccc1", "AC50": "12.6 µM [rising, partial curve, poor fit]"},
      {"smiles": "COc1ccccc1CNc1ncncc1-c1ccc(C(=O)N(C)C)cc1", "AC50": "28.2 µM [rising, partial curve, poor fit]"},
      {"smiles": "CN(C)c1nc(-c2cccnc2)nc2ccccc12", "AC50": "0.355 µM [rising, full curve]"},
      {"smiles": "CC[C@]1(c2ncc[nH]2)Cc2ccccc2O1", "AC50": "35.5 µM [rising, partial curve, poor fit]"},
      {"smiles": "COc1cccc(-c2cncnc2NCc2cccnc2)c1", "AC50": "1 µM [rising, full curve]"},
      {"smiles": "c1nc(NC2CC2)c2cc(-c3ccoc3)ccc2n1", "AC50": "3.55 µM [rising, full curve]"},
      {"smiles": "CN(Cc1ccco1)c1ncnc2ccc(-c3ccccc3C#N)cc12", "AC50": "0.891 µM [rising, full curve, poor fit]"},
      {"smiles": "CC(C)c1ccc2c(c1)CC[C@@H]1[C@@](C)(CN)CCC[C@]21C", "AC50": "0.00224 µM [falling, full curve, poor fit]"},
      {"smiles": "Cc1cccc(/C=C\\c2ccccc2)n1", "AC50": "14.1 µM [rising, partial curve]"},
      {"smiles": "CN(C)c1ncc2nc(-c3cc(F)cc(F)c3)c(=O)n(CCc3ccccc3)c2n1", "AC50": "0.562 µM [rising, full curve]"},
      {"smiles": "COc1ccc(-c2nc3cnc(OC)nc3n(Cc3ccc(F)cc3)c2=O)cc1", "AC50": "0.0316 µM [rising, full curve, poor fit]"},
      {"smiles": "C[C@@H](CCc1ccc(O)cc1)NCCc1ccc(O)c(O)c1", "AC50": "12.6 µM [rising, partial curve, poor fit]"},
      {"smiles": "N#CCCn1c(=O)c(-c2cc(F)cc(F)c2)nc2cnc(Oc3cccc(Cl)c3)nc21", "AC50": "1.26 µM [rising, partial curve]"},
      {"smiles": "CC(C)(C)NCC(O)c1cc(O)cc(O)c1", "note": "(stereo not given)", "AC50": "39.8 µM [rising, single point] and 562 nM [falling, full curve, poor fit]"},
      {"smiles": "c1ccc(Nc2nc(-c3ccoc3)nc3ccccc23)cc1", "AC50": "0.00794 µM [rising, full curve, poor fit]"},
      {"smiles": "CC(=O)OC1CCC2(C)C3CCC4(C)C(CC5CCCCC54C(C)=O)C3CC(=O)[C@@]2(O)C1", "note": "(stereo not given in full)", "AC50": "28.2 µM [rising, partial curve, poor fit]"},
      {"smiles": "Cn1cccc1C(=O)N1CCC2(CC1)CCN(c1ccccn1)CC2", "AC50": "0.141 µM [rising, full curve, poor fit]"},
      {"smiles": "COc1ncc2nc(C)c(=O)n(-c3ccccc3)c2n1", "AC50": "8.91 µM [rising, partial curve]"},
      {"smiles": "CCNc1ncc2nc(-c3cccs3)c(=O)n(Cc3ccc(F)cc3)c2n1", "AC50": "0.251 µM [rising, full curve, poor fit]"},
      {"smiles": "COc1ccc(-n2c(=O)c(-c3ccc(F)cc3)nc3cnc(OC)nc32)cc1", "AC50": "0.00562 µM [rising, full curve, poor fit]"},
      {"smiles": "C[C@@H]([C@H](O)c1ccc(O)cc1)N1CCC(Cc2ccccc2)CC1", "AC50": "31.6 µM [rising, partial curve, poor fit]"},
      {"smiles": "C=C(CO)C1Cc2c(ccc3c(=O)c4c(oc23)COc2cc(OC)c(OC)cc2-4)O1", "note": "(stereo not given)", "AC50": "6.31 µM [rising, full curve, poor fit]"},
      {"smiles": "Cc1cnc(CNc2nc(-c3c(C)noc3C)nc3ccccc23)cn1", "AC50": "0.794 µM [rising, full curve]"},
      {"smiles": "O=C(c1cc(C(F)(F)F)cc(C(F)(F)F)c1)N1CCC2(CCCN(Cc3ccncc3)C2)CC1", "AC50": "7.08 µM [rising, partial curve]"},
      {"smiles": "CN(CCc1ccc(Cl)c(Cl)c1)CCN1CCCCCC1", "AC50": "31.6 µM [rising, single point]"},
      {"smiles": "COc1ccccc1-c1cncnc1NCc1ccccc1", "AC50": "5.01 µM [rising, full curve, poor fit]"}
    ]}
  ]
}
